Laboratory results reported in patent US11685745B2, “Substituted benzoxazole and benzofuran compounds as PDE7 inhibitors” (Dart NeuroScience, LLC, priority 2017, dated 2023).

Target: N-terminal truncated recombinant human PDE7B enzyme (Homo sapiens (Human), UniProt Q9NP56)
Experiment: biochemical

First: O=C1Nc2c(Cl)cc3cc(C(=O)NC4(C5CCOCC5)CC4)oc3c2C2(CCCCC2)N1 [Example 368, 5′-Chloro-N-[1-(oxan-4-yl)cyclopropyl]-7′-oxo-7′,8′-dihydro-6′H-spiro[cyclohexane-1,9′-furo[2,3-f]quinazoline]-2′-carboxamide]
Second: CN(C(=O)c1cc2cc(Cl)c3c(c2o1)C1(CCCCC1)NC(=O)N3)C1CCCC1 [Example 251, 5′-Chloro-N-cyclopentyl-N-methyl-7′-oxo-7′,8′-dihydro-6′H-spiro[cyclohexane-1,9′-furo[2,3-f]quinazoline]-2′-carboxamide]
The IC50 of the first is lower: 10 to 100 nM for the first, 100 to 1000 nM for the second. The first is the more potent here.

`O=C1Nc2c(Cl)cc3nc(CN4CC(F)(F)C4)oc3c2C2(CCCCC2)N1` [Example 45, 5-Chloro-2-[(3,3-difluoroazetidin-1-yl)methyl]-7,8-dihydro-6H-spiro[[1,3]oxazolo[5,4-f]quinazoline-9,1′-cyclohexane]-7-one] and `O=C1Nc2c(Cl)cc3nc(CN4CCCC4)oc3c2C2(CCCCC2)N1` [Example 38, 5-Chloro-2-(pyrrolidin-1-ylmethyl)-7,8-dihydro-6H-spiro[[1,3]oxazolo[5,4-f]quinazoline-9,1′-cyclohexane]-7-one] fall in the same range of IC50: 10 to 100 nM for the first, 10 to 100 nM for the second.

`CN1CCCN(Cc2cc3cc(Cl)c4c(c3o2)C2(CCCCC2)NC(=O)N4)CC1` [Example 533, 5′-Chloro-2′-[(4-methyl-1,4-diazepan-1-yl)methyl]-7′,8′-dihydro-6′H-spiro[cyclohexane-1,9′-furo[2,3-f]quinazoline]-7′-one] and `CN1CCN(Cc2cc3cc(Cl)c4c(c3o2)C2(CCCCC2)NC(=O)N4)CC1` [Example 244, 5′-chloro-2′-[(4-methylpiperazin-1-yl)methyl]-7′,8′-dihydro-6′H-spiro[cyclohexane-1,9′-furo[2,3-f]quinazoline]-7′-one] fall in the same range of IC50: 100 to 1000 nM for the first, 100 to 1000 nM for the second.

`O=C1Nc2c(Cl)cc3cc(C(=O)N4CCN(CCF)CC4)oc3c2C2(CCCCC2)N1` [Example 27, 5′-Chloro-2′-(4-(2-fluoroethyl)piperazine-1-carbonyl)-6′H-spiro[cyclohexane-1,9′-furo[2,3-f]quinazolin]-7′(8′H)-one] and `O=C1Nc2c(Cl)cc3cc(C(=O)N4CCCC(O)C4)oc3c2C2(CCCCC2)N1` (stereo not drawn) [Example 274, 5′-Chloro-2′-(3-hydroxypiperidine-1-carbonyl)-7′,8′-dihydro-6′H-spiro[cyclohexane-1,9′-furo[2,3-f]quinazoline]-7′-one] fall in the same range of IC50: 10 to 100 nM for the first, 10 to 100 nM for the second.

First: CN(C)CC1CCN(Cc2cc3cc(Cl)c4c(c3o2)C2(CCCCC2)NC(=O)N4)CC1 [Example 488, 5′-Chloro-2′-({4-[(dimethylamino)methyl]piperidin-1-yl}methyl)-7′,8′-dihydro-6′H-spiro[cyclohexane-1,9′-furo[2,3-f]quinazoline]-7′-one]
Second: O=C1Nc2c(Cl)cc3cc(CNCC4CCCO4)oc3c2C2(CCCCC2)N1 (stereo not drawn) [Example 478, 5′-Chloro-2′-{[(oxolan-2-ylmethyl)amino]methyl}-7′,8′-dihydro-6′H-spiro[cyclohexane-1,9′-furo[2,3-f]quinazoline]-7′-one]
The IC50 of the first is higher: over 1000 nM for the first, 100 to 1000 nM for the second.

`O=C1Nc2c(Cl)cc3cc(C(=O)NCCOc4cccnc4)oc3c2C2(CCCCC2)N1` [Example 316, 5′-Chloro-7′-oxo-N-[2-(pyridin-3-yloxy)ethyl]-7′,8′-dihydro-6′H-spiro[cyclohexane-1,9′-furo[2,3-f]quinazoline]-2′-carboxamide] and `O=C1Nc2c(Cl)cc3cc(C(=O)NCCCCO)oc3c2C2(CCCCC2)N1` [Example 257, 5′-Chloro-N-(4-hydroxybutyl)-7′-oxo-7′,8′-dihydro-6′H-spiro[cyclohexane-1,9′-furo[2,3-f]quinazoline]-2′-carboxamide] fall in the same range of IC50: 10 to 100 nM for the first, 10 to 100 nM for the second.

`O=C1Nc2c(Cl)cc3nc(CNCc4cocn4)oc3c2C2(CCCCC2)N1` [Example 173, 5-Chloro-2-{[(1,3-oxazol-4-ylmethyl)amino]methyl}-7,8-dihydro-6H-spiro[[1,3]oxazolo[5,4-f]quinazoline-9,1′-cyclohexane]-7-one] and `Cc1ccc(CNCc2nc3cc(Cl)c4c(c3o2)C2(CCCCC2)NC(=O)N4)cn1` [Example 80, 5-Chloro-2-({[(6-methylpyridin-3-yl)methyl]amino}methyl)-7,8-dihydro-6H-spiro[[1,3]oxazolo[5,4-f]quinazoline-9,1′-cyclohexane]-7-one] fall in the same range of IC50: 10 to 100 nM for the first, 10 to 100 nM for the second.

Compared with `N#CC1CN(C(=O)c2cc3cc(Cl)c4c(c3o2)C2(CCCCC2)NC(=O)N4)C1` [Example 318, 1-({5′-Chloro-7′-oxo-7′,8′-dihydro-6′H-spiro[cyclohexane-1,9′-furo[2,3-f]quinazoline]-2′-yl}carbonyl)azetidine-3-carbonitrile], `CCN(CC)C(=O)c1cc2cc(Cl)c3c(c2o1)C1(CCCCC1)NC(=O)N3` [Example 370, 5′-Chloro-N,N-diethyl-7′-oxo-7′,8′-dihydro-6′H-spiro[cyclohexane-1,9′-furo[2,3-f]quinazoline]-2′-carboxamide] is lower in IC50: 100 to 1000 nM for the first, 10 to 100 nM for the second.

Compared with `O=C1CCN(Cc2nc3cc(Cl)c4c(c3o2)C2(CCCCC2)NC(=O)N4)CC1` [Example 90, 5-Chloro-2-[(4-oxopiperidin-1-yl)methyl]-7,8-dihydro-6H-spiro[[1,3]oxazolo[5,4-f]quinazoline-9,1′-cyclohexane]-7-one], `O=C1COC2(CCN(Cc3nc4cc(Cl)c5c(c4o3)C3(CCCCC3)NC(=O)N5)CC2)C1` [Example 78, 5-Chloro-2-({3-oxo-1-oxa-8-azaspiro[4.5]decan-8-yl}methyl)-7,8-dihydro-6H-spiro[[1,3]oxazolo[5,4-f]quinazoline-9,1′-cyclohexane]-7-one] is lower in IC50: 100 to 1000 nM for the first, 10 to 100 nM for the second.

First: CO[C@H]1CC[C@H](NCc2nc3cc(Cl)c4c(c3o2)C2(CCCCC2)NC(=O)N4)CC1 [Example 108, 5-Chloro-2-({[(1R,4R)-4-methoxycyclohexyl]amino}methyl)-7,8-dihydro-6H-spiro[[1,3]oxazolo[5,4-f]quinazoline-9,1′-cyclohexane]-7-one]
Second: O=C1Nc2c(Cl)cc3nc(CNCC4CCOCC4)oc3c2C2(CCCCC2)N1 [Example 84, 5-Chloro-2-{[(oxan-4-ylmethyl)amino]methyl}-7,8-dihydro-6H-spiro[[1,3]oxazolo[5,4-f]quinazoline-9,1′-cyclohexane]-7-one]
The IC50 of the first is higher: 100 to 1000 nM for the first, 10 to 100 nM for the second. The second is the more potent here.

`O=C1Nc2c(Cl)cc3cc(C(=O)N4CCN(C(=O)C5CCCO5)CC4)oc3c2C2(CCCCC2)N1` (stereo not drawn) [Example 442, 5′-Chloro-2′-[4-(oxolane-2-carbonyl)piperazine-1-carbonyl]-7′,8′-dihydro-6′H-spiro[cyclohexane-1,9′-furo[2,3-f]quinazoline]-7′-one] and `CC(C)N1CCN(C(=O)c2nc3cc(Cl)c4c(c3o2)C2(CCCCC2)NC(=O)N4)CC1` [Example 208, 5-Chloro-2-[4-(propan-2-yl)piperazine-1-carbonyl]-7,8-dihydro-6H-spiro[[1,3]oxazolo[5,4-f]quinazoline-9,1′-cyclohexane]-7-one] fall in the same range of IC50: 10 to 100 nM for the first, 10 to 100 nM for the second.

Compared with `O=C1Nc2c(Cl)cc3ncoc3c2C2(CCCCC2)N1` [Example 13, 5′-Chloro-6′H-spiro[cyclohexane-1,9′-oxazolo[5,4-f]quinazolin]-7′(8′H)-one], `CC(C)c1nc2cc(Cl)c3c(c2o1)C1(CCCCC1)NC(=O)N3` [Example 17, 5′-Chloro-2′-isopropyl-6′H-spiro[cyclohexane-1,9′-oxazolo[5,4-f]quinazolin]-7′(8′H)-one] is lower in IC50: 100 to 1000 nM for the first, 10 to 100 nM for the second. The second is the more potent here.

`O=C1Nc2c(Cl)cc3cc(CNC4CCS(=O)(=O)CC4)oc3c2C2(CCCCC2)N1` [Example 523, 4-({5′-Chloro-7′-oxo-7′,8′-dihydro-6′H-spiro[cyclohexane-1,9′-furo[2,3-f]quinazoline]-2′-ylmethyl}amino)-thiane-1,1-dione] and `CCN(CC)C(=O)CNC(=O)c1cc2cc(Cl)c3c(c2o1)C1(CCCCC1)NC(=O)N3` [Example 340, 2-{5′-Chloro-7′-oxo-7′,8′-dihydro-6′H-spiro[cyclohexane-1,9′-furo[2,3-f]quinazoline]-2′-ylformamido}-N,N-diethylacetamide] fall in the same range of IC50: 10 to 100 nM for the first, 10 to 100 nM for the second.

First: O=C1Nc2c(Cl)cc3nc(CNCCOC(F)(F)F)oc3c2C2(CCCCC2)N1 [Example 138, 5-Chloro-2-({[2-(trifluoromethoxy)ethyl]amino}methyl)-7,8-dihydro-6H-spiro[[1,3]oxazolo[5,4-f]quinazoline-9,1′-cyclohexane]-7-one]
Second: O=C1Nc2c(Cl)cc3nc(CN4CCC(OCC5CC5)CC4)oc3c2C2(CCCCC2)N1 [Example 70, 5-Chloro-2-{[4-(cyclopropylmethoxy)piperidin-1-yl]methyl}-7,8-dihydro-6H-spiro[[1,3]oxazolo[5,4-f]quinazoline-9,1′-cyclohexane]-7-one]
The IC50 of the first is lower: 10 to 100 nM for the first, 100 to 1000 nM for the second.

Compared with `CN(Cc1ccccc1)C(=O)c1cc2cc(Cl)c3c(c2o1)C1(CCCCC1)NC(=O)N3` [Example 408, N-Benzyl-5′-chloro-N-methyl-7′-oxo-7′,8′-dihydro-6′H-spiro[cyclohexane-1,9′-furo[2,3-f]quinazoline]-2′-carboxamide], `CN(CC(O)c1ccccc1)C(=O)c1cc2cc(Cl)c3c(c2o1)C1(CCCCC1)NC(=O)N3` (stereo not drawn) [Example 292, 5′-Chloro-N-(2-hydroxy-2-phenylethyl)-N-methyl-7′-oxo-7′,8′-dihydro-6′H-spiro[cyclohexane-1,9′-furo[2,3-f]quinazoline]-2′-carboxamide] is lower in IC50: 100 to 1000 nM for the first, 10 to 100 nM for the second. The second is the more potent here.

First: COc1cccc(CN(C)C(=O)c2cc3cc(Cl)c4c(c3o2)C2(CCCCC2)NC(=O)N4)c1OC [Example 279, 5′-Chloro-N-[(2,3-dimethoxyphenyl)methyl]-N-methyl-7′-oxo-7′,8′-dihydro-6′H-spiro[cyclohexane-1,9′-furo[2,3-f]quinazoline]-2′-carboxamide]
Second: CCOC(=O)c1cn2c(n1)CN(Cc1cc3cc(Cl)c4c(c3o1)C1(CCCCC1)NC(=O)N4)CC2 [Example 525, Ethyl 7-{5′-chloro-7′-oxo-7′,8′-dihydro-6′H-spiro[cyclohexane-1,9′-furo[2,3-f]quinazoline]-2′-ylmethyl}-5H,6H,7H,8H-imidazo[1,2-a]pyrazine-2-carboxylate]
The IC50 of the first is lower: 10 to 100 nM for the first, 100 to 1000 nM for the second. The first is the more potent here.

For `O=C1Nc2c(Cl)cc3nc(CN[C@H]4CCCOC4)oc3c2C2(CCC(F)(F)CC2)N1` [Example 226, 5-Chloro-4′,4′-difluoro-2-({[(3S)-oxan-3-yl]amino}methyl)-7,8-dihydro-6H-spiro[[1,3]oxazolo[5,4-f]quinazoline-9,1′-cyclohexane]-7-one], the IC50 was 100 to 1000 nM.
